# Measurements from PubChem BioAssay AID1956 (SRMLSC, 2009).
# Values joined by “and” are separate entries in the source; they are usually repeats but may differ in a detail not shown here. Equal entries are not always repeated. The list shows a part of the results. The main result of the screen is listed elsewhere. These columns were measured beside it and carry no call.
# Assay: enhancers of HSV replication in host cells, fold increase, host cell viability (AID 1956); further: tested in PC3 cells
# Conditions: HSV replication augmentation in cells; fold increase: measured here: primary screen fold increase 10 uM, at 10 µM, stronger effect = higher value; viability: measured here: host cell viability series, at 25 µM, stronger effect = lower value
Structure (SMILES),fold increase,viability
CC(=O)Nc1ccc(OC(=O)c2ccccc2N)cc1,1.37,96.2%
CN(C)/C=c1\sc2c(C#N)cc(C(=O)c3ccc(Br)cc3)n2c1=O,1.58,98.6%
CC1(C)OC(c2ccccc2)=C/C(=C/C=C2C(=O)NC(=S)NC2=O)O1,5.27,–
O=C1NC(=O)N(CCc2ccc(F)cc2)C(=O)/C1=C/c1ccco1,1.6,91.2%
Cc1cc(C=C2C(=O)N(C)C(=S)N(C)C2=O)c(C)n1C1CCCCC1,2.82,97.9%
O=c1[nH]c(=O)n(CCC2=CCCCC2)c(O)c1/C=N/Nc1cccc2ccccc12,1.78,92.8%
CN1/C(=C\C=C2C(=O)NC(=S)NC2=O)C(C)(C)c2ccccc21,8.73,92.7%
O=C1NC(=O)N(Cc2ccc(F)cc2)C(=O)/C1=C\c1ccc([N+](=O)[O-])s1,1.71,90.8%
N=C1c2ccccc2CN1NC(=O)c1ccc(Cl)cc1,1.44,100%
CCC1(C)OC(c2ccccc2)=C/C(=C/C=C2C(=O)NC(=O)NC2=O)O1 (stereo not given),4.22,93.2%
COC(=O)C1C=C2c3cccc4[nH]cc(c34)CC2N(C)C1 (stereo not given),1.89,99.6%
CC(C(=O)c1c[nH]c2ccccc12)N1CCc2ccccc2C1 (stereo not given),1.13,75.4%
CCOc1ccc(N2C(=O)NC(=O)/C(=C\c3ccc(N4CCCCC4)o3)C2=O)cc1,3.09,92.6%
O=C1NC(=O)N(c2ccccc2)C(=O)/C1=C/c1ccoc1,1.9,101%
COCC(C)OC(=O)c1c(N)n(Cc2ccco2)c2nc3ccccc3nc12 (stereo not given),1.64,97.3%
O=C1NC(=O)N(c2ccccc2F)C(=O)/C1=C/c1ccc(Sc2nc3ccccc3[nH]2)o1,2.67,97.9%
O=C1NC(=O)N(c2ccc3c(c2)OCO3)C(=O)/C1=C/c1ccc(N2CCCC2)o1,2.14,100%
N#Cc1c(/N=C/C2C(=O)NC(=S)NC2=O)sc2c1CCCC2,1.36,–
Cc1cc(C=C2C(=O)N(C)C(=S)N(C)C2=O)c(C)n1-c1cccnc1,1.32,–
O=C1OC(c2ccc([N+](=O)[O-])cc2)=N/C1=C/N1CC2CC(C1)c1cccc(=O)n1C2 (stereo not given),1.42,98.1%
C/C(=N\Nc1cccc2ccccc12)c1c(O)n(Cc2ccccc2)c(=O)[nH]c1=O,1.45,90.8%
Cc1ccc(/C=C2\C(=O)NC(=S)N(c3ccc(F)cc3)C2=O)s1,1.38,–

Structure (SMILES),fold increase,viability
COc1ccc2c(c1)CC1(CN2C)C(=O)NC(=O)N(c2ccc(F)cc2)C1=O (stereo not given),1.49,93.2%
CC(=NCCCn1ccnc1)c1c(O)n(Cc2ccccc2)c(=O)[nH]c1=O,1.37,94.9%
O=c1[nH]c(=O)n(C2CCCCC2)c(O)c1/C=C/C=Nc1ccccc1,4.29,94.5%
COCCCNC(=O)c1c(N)n(Cc2ccco2)c2nc3ccccc3nc12,1.5,80.2%
COCCNC(=O)c1c(N)n(Cc2ccco2)c2nc3ccccc3nc12,1.36,93.6%
O=c1[nH]c(=S)n(C2CC2)c(O)c1/C=N/Nc1cccc2ccccc12,1.4,95.6%
COc1ccccc1N1C(=O)NC(=O)/C(=C/c2ccc3c4c(cccc24)CC3)C1=O,1.37,104%
O=C1NC(=O)N(Cc2ccccc2)C(=O)/C1=C/C=C/c1ccco1,1.74,61.2%
CCN(CC)c1ccc(N=Cc2c(O)n(-c3ccc(Cl)cc3)c(=O)[nH]c2=O)cc1,1.38,104%
Cc1cc(C)cc(N2C(=O)NC(=O)/C(=C\C=C\c3ccco3)C2=O)c1,1.78,76.6%
CCOC(=O)c1c(/N=C/C2C(=O)NC(=S)NC2=O)sc2c1CCC2,1.34,–
COc1ccc(/C=C2/C(=O)N(Cc3ccco3)C(=O)N(C(C)C)C2=O)cc1,1.39,99.6%
O=C1NC(=O)N(Cc2ccccc2)C(=O)/C1=C\N1CCCc2ccccc21,1.4,93.5%
OC(c1ccc(F)cc1)C(c1ccccc1)N1CCOCC1 (stereo not given),1.13,103%
CCN(CC)c1ccc(N=Cc2c(O)n(Cc3ccccc3)c(=O)[nH]c2=O)cc1,1.54 and 1.6,99.6% and 75.1%
CC(C)n1c(=O)c(C=Nc2ccc(S(N)(=O)=O)cc2)c(O)n(Cc2ccco2)c1=O,1.45,98.6%
Cc1ccc(N2C(=O)NC(=O)/C(=C\c3ccoc3)C2=O)cc1,2.71,95.1%
C=CCN1C(=O)/C(=C/c2ccc(N3CCOCC3)o2)C(=O)NC1=S,1.56,–
CCN1C(=O)C(=Cc2ccc(N3CCOCC3)o2)C(=O)N(CC)C1=S,2.68,96.2%
CCOC(=O)c1c(N)n(CCN2CCOCC2)c2nc3ccccc3nc12,1.41,103%
CN1C(=O)/C(=C/c2ccc(N3CCCCCC3)o2)C(=O)NC1=S,2.48,91%
